Laboratory results as given in PubChem BioAssay AID2451 (National Center for Advancing Translational Sciences (NCATS), 2010).
The campaign covered roughly 290,000 compounds. About 2,100 (0.72%) were called active. This list was built around the results that the source calls inconclusive (neither active nor inactive); the mix of calls is not that of the screen. The call rests on the fitted dose curve; in most records, active means well fitted inhibition curve with a large enough effect; inconclusive means small, poorly fitted or top-dose-only effect, or effect the other way; inactive means flat fitted curve, though single readings scatter. Potencies beside an inconclusive call are fits to weak or partial responses and may not hold up.

The compounds below were run against Fructose-bisphosphate aldolase (Giardia intestinalis (strain ATCC 50803 / WB clone C6)) (UniProt A8B2U2) (assay: qHTS Assay for Inhibitors of Fructose-1,6-bisphosphate Aldolase from Giardia Lamblia). Conditions: purified Giardia FBPA; series mostly up to 59.6 µM.
Method in brief: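 40 nM FBPA preincubated 10 min at RT with compound (up to 57.5 uM final), then substrate plus GAPDH/TPI/NAD/arsenate coupling and diaphorase/resazurin added. Fluorescence read after 20 min at RT, 525/598 nm.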
Further: nearly all actives have a fitted effect of over 55% in size.
Potency means the concentration at half of the fitted maximal effect; tags describe the fitted curve by direction and shape.

UniProt A8B2U2, sequence (A8B2U2 whole entry, looked up): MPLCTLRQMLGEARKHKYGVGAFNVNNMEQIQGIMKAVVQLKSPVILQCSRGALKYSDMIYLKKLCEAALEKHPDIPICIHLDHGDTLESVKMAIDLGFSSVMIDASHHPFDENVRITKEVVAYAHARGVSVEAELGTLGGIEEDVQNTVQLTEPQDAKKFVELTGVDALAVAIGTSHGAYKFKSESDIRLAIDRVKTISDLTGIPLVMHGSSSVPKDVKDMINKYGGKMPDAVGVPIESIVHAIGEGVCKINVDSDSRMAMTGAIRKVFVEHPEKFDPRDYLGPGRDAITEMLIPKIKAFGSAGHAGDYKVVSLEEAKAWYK

Structure (SMILES)	Potency
C=CCOc1ccc2ccccc2c1CNn1cn[nH]c1=S	inconclusive: 2.82 µM [inhibitor, single point]
CCc1nc2ccccc2c(NC(=O)CN2CCC(C)CC2)c1C	inconclusive: 17.7 µM [inhibitor, partial curve]
CCOc1ccccc1NC(=O)c1c(NC(=O)CNCc2ccco2)sc2c1CCC2	inactive
CCOC(=O)N1CCN(C(=O)Nc2ccc3oc(C)nc3c2)CC1	inconclusive: 9.98 µM [inhibitor, partial curve, poor fit]
Cc1ccc(-c2n[nH]c(=S)n2/N=C/C=C\c2ccccc2[N+](=O)[O-])cc1	inconclusive: 17.7 µM [activator, single point]
COC(=O)c1c(NS(=O)(=O)c2ccccc2)csc1C	inconclusive: 17.7 µM [inhibitor, partial curve]
CC(C)c1nnc(NC(=O)CSc2nnc(-c3ccco3)o2)s1	inconclusive: 15.8 µM [inhibitor, partial curve]
CCN1C(=O)c2ccc(C(=O)Nc3ccc4c(c3)OCO4)cc2C1=O	inactive
COCCn1c(C)cc(/C=C2\NC(=S)N(C)C2=O)c1C	inconclusive: 15.8 µM [inhibitor, partial curve]
CCCc1nnc(SCC(=O)Nc2nccs2)o1	inconclusive: 39.8 µM [inhibitor, single point]
CCCc1cc(=O)[nH]c(SCCOc2ccc(Cl)cc2)n1	inconclusive: 15.8 µM [inhibitor, partial curve]
Cn1c(=O)c2[nH]c(CN3CCN(Cc4ccccc4)CC3)nc2n(C)c1=O	inconclusive: 8.89 µM [inhibitor, partial curve]
CCN1CCN(C2=NC(=O)/C(=C/c3ccc(C)o3)S2)CC1	inconclusive: 9.98 µM [inhibitor, partial curve]
COc1cccc(CN2CC(C(=O)N3CCOCC3)CCC2=O)c1 (stereo not given)	inactive
COc1cccc(-c2csc(N3CCN(C(=S)Nc4ccccc4)CC3)n2)c1	inactive
CCn1c(-c2cccnc2)n[nH]c1=S	inconclusive: 19.9 µM [inhibitor, partial curve]
COc1ccccc1/C=C1\SC(=S)N(NS(=O)(=O)c2ccccc2)C1=O	inconclusive: 20 µM [inhibitor, single point]
CCC(NC(=O)c1cc(COc2cc(C)c(Cl)c(C)c2)on1)c1ccncc1 (stereo not given)	inactive
O=C1CCN(C(=O)c2ccc(Cl)cc2)N1	inconclusive: 14.1 µM [inhibitor, partial curve]
Cc1ccc(C(=O)Nc2cccc3[nH]c(C(F)(F)F)nc23)cc1	inconclusive: 25.1 µM [inhibitor, partial curve]
CCC(c1nnnn1Cc1ccco1)N(CCN1CCOCC1)Cc1cc2cc(C)ccc2[nH]c1=O (stereo not given)	inconclusive: 17.7 µM [inhibitor, single point]
CCCc1[nH]c(=O)c(C#N)c2c1COC(C)(C)C2	inactive
Oc1cc2c(cc1O)C1c3ccc(O)c(O)c3OCC1(O)C2 (stereo not given)	active: 6.29 µM

Structure (SMILES)	Potency
O=C(O)c1sccc1SCc1ccc(Cl)cc1Cl	inconclusive: 15.8 µM [activator, single point]
O=C(CSc1cccc2cccnc12)N/N=C/c1ccc(F)cc1	inconclusive: 17.7 µM [inhibitor, partial curve]
O=C(O)C(Cc1ccc2c(c1)oc1ccccc12)NCP(=O)(O)O (stereo not given)	inconclusive: 22.3 µM [inhibitor, partial curve]
COc1cccc(NC(=O)N2CCN(C(=O)C(Cc3ccc(OC)c(OC)c3)NC(C)=O)CC2)c1 (stereo not given)	inactive
Nc1c(C(=O)NCc2ccco2)c2nc3ccccc3nc2n1CCc1ccccc1	inconclusive: 12.6 µM [inhibitor, partial curve]
Cc1c(Br)c(=O)oc2c(Br)c(O)c(O)cc12	inconclusive: 1.12 µM [inhibitor, partial curve]
Cc1ccc(O)c(-c2cc3ccccc3[nH]2)c1	inconclusive: 12.6 µM [inhibitor, partial curve]
N#C/C(=C/c1ccc(N2CCCCCC2)o1)c1cccc(F)c1	inconclusive: 17.7 µM [inhibitor, partial curve]
C[C@H](C(=O)O)c1cccc(C(=O)c2ccccc2)c1	inconclusive: 25.1 µM [activator, partial curve]
COCCNC(=O)C(c1ccc(C)cc1)N(Cc1ccco1)C(=O)CCC(=O)Nc1ccccn1 (stereo not given)	inactive
O=C(Cn1nc(Cc2ccncc2)c2ccccc2c1=O)N1CCc2ccccc2C1	inconclusive: 17.7 µM [inhibitor, single point]
COc1ccc(CSc2nc(C)[nH]c2[N+](=O)[O-])cc1[N+](=O)[O-]	inactive
CC1CC(C)(C)Nc2ccc(N=O)cc21 (stereo not given)	inconclusive: 44.6 µM [inhibitor, single point]
O=C(CCN1CCN(C/C=C/c2ccccc2)CC1)Nc1ccccc1F	inconclusive: 15.8 µM [inhibitor, single point]
Cc1cc(C)n2nc(C(=O)NNC(=O)c3ccccc3)nc2n1	inconclusive: 15.8 µM [inhibitor, partial curve]
Cc1ccccc1C(=O)NCC(=O)NNC(=S)NC(=O)c1ccccc1	inconclusive: 31.5 µM [activator, single point]
CN1CCN(Cc2nc3ccccc3c(=O)n2Cc2nc(-c3cccc([N+](=O)[O-])c3)cs2)CC1	inconclusive: 25.1 µM [inhibitor, single point]
O=C(/C(=C(/[O-])c1ccccc1)[n+]1ccccc1)c1ccc([N+](=O)[O-])cc1	inactive
O=C(O)CCCCCCCCc1cn(Cc2ccc(C(=O)c3ccccc3)cc2)nn1	inactive
COc1ccc(NC(=S)Nc2ncccc2C)c(OC)c1	inactive
Cc1cc(C(=O)CSc2nc3ccccc3c(=O)n2C)c(C)n1Cc1ccc2c(c1)OCO2	inconclusive: 11.2 µM [inhibitor, partial curve]
CN(C)S(=O)(=O)c1cccc(NC(=O)CNCc2ccccn2)c1	inconclusive: 35.4 µM [inhibitor, single point]
